# PMC4336329 (PLoS ONE, 2015)
# The campaign covered roughly 310,000 compounds. About 14,000 (4.5%) showed an effect of 50% or more. Effects have a minus sign here. This is one part of the list.
# Target: human ether-à-go-go-related gene (hERG) potassium channel (human, UniProt Q12809)
# Test: primary screen, population patch clamp on CHO cells stably expressing hERG
# 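Also: peak tail current of the secondary pulse compared with the same well before compound.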
# human ether-à-go-go-related gene (hERG) potassium channel, sequence (Q12809 whole entry, looked up): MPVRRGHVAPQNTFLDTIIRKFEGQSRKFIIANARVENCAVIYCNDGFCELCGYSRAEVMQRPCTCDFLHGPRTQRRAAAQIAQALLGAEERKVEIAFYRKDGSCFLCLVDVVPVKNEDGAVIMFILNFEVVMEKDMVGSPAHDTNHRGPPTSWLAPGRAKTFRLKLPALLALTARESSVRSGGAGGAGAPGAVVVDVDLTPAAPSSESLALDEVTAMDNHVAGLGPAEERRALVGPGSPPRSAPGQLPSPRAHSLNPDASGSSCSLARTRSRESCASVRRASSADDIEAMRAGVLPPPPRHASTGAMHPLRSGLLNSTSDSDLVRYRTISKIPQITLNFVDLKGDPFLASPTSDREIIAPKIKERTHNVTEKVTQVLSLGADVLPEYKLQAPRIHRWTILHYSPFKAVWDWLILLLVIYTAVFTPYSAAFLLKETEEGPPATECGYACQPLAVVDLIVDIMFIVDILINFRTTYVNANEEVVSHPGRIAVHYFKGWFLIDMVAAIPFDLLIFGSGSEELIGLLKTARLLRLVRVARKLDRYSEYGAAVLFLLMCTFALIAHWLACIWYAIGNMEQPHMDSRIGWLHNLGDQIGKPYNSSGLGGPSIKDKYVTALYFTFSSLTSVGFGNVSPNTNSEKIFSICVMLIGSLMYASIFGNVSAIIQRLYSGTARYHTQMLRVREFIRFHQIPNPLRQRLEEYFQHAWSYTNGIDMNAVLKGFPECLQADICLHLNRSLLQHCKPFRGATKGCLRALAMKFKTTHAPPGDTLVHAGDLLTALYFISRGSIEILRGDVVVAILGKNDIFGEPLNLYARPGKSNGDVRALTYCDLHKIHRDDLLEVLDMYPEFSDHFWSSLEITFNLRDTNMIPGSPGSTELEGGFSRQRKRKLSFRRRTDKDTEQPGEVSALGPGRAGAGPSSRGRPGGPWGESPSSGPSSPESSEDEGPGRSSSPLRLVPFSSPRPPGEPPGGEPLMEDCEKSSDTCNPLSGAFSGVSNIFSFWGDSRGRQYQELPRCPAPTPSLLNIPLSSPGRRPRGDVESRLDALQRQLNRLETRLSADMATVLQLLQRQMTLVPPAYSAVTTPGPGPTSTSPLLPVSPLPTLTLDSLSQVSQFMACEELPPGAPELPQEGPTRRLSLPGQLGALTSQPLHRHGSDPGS
row,SMILES,"hERG current change (%, negative = inhibition) at 10uM"
1,C=CCN1C=C2C(=O)C(C)(OC(=O)CCC(=O)OC)C(=O)C=C2C=C1C1CC1 (centres unmarked),8.95%
2,CCOC(=O)c1c(N)nn(C(=O)C(C)C)c1-c1ccc(OC)cc1,22.1%
3,Cn1c(SCC(=O)N2CCCc3ccccc32)nnc1-c1c[nH]c2ccccc12,-10.2%
4,Fc1cccc(Cc2noc(CN3CCSCC3)n2)c1,29.1%
5,COc1ccccc1C(=O)Nc1ccc(S(=O)(=O)Nc2onc(C)c2C)cc1,-3.03%
6,Cn1c(-c2nonc2N)nc2ccccc21,5.08%
7,CCCN1C(=O)C(NC(=O)c2ccncc2)(C(F)(F)F)C2=C1CC(C)(C)CC2=O (centres unmarked),4.89%
8,CC1CCCCN1c1ncnc2ccccc12.Cl (centres unmarked),-7.46%
9,O=C(NCc1ccccc1F)c1ccc(S(=O)(=O)Nc2cccc(C(F)(F)F)c2)cc1,0.298%
10,Cc1ccc(CN(C)C(=O)c2ccccc2NC(=O)c2ccccc2)o1,6.66%
11,CC(=O)N1CCN(c2ccc(NCc3ccc(Br)o3)cc2)CC1,-14.6%
12,COc1ccc(N2CCN(C3CCCN(Cc4ccccc4OCCO)C3)CC2)cc1 (centres unmarked),-24.1%
13,CCCCOC(=O)C1=C(C)NC2(O)c3ccccc3C(=O)C12O (centres unmarked),10.1%
14,CCOc1ccc(-n2c(-c3ccco3)n[nH]c2=S)cc1,2.48%
15,Cc1cc(OCCN2CCN(S(=O)(=O)c3ccccc3F)CC2)ccc1C(C)C,-15.3%
16,COc1ccc(NC(=O)CN(C)C(=O)c2cc(C3CC3)nn2-c2ccccc2)cc1,-24.1%
17,COc1ccc(C(=O)NCCNc2nc3c(C)cccc3cc2C#N)cc1OC,7.58%
18,O=S(=O)(CCN1CCCCC1)Oc1ccc(Cl)cc1Cl,-28.5%
19,CN(C(=O)Nc1ccccc1)C1CCS(=O)(=O)C1 (centres unmarked),2.6%
20,Cc1ccc(NC(=O)/C(=C/c2ccncc2)NC(=O)c2ccccc2)cc1,-9.82%
21,CCOC(=O)c1cnc(-n2cc(C)cn2)nc1Nc1ccccc1OC,-8.01%
22,O=C(/C=C/c1ccc(Cl)cc1Cl)NCc1ccco1,-9.09%
23,CCCCn1c(-c2nonc2N)nc2ccccc21,10.9%

row,SMILES,"hERG current change (%, negative = inhibition) at 10uM"
1,CCOC(=O)N1CCN(C(=O)CSc2ccc(-c3ccc(OC)c(OC)c3)nn2)CC1,-14.4%
2,Cc1c(Cl)cccc1NC(=S)Nn1cnnc1,17.1%
3,CN1C(=O)NC(c2ccccc2)C2=C1CN(c1cccc(C(F)(F)F)c1)C2=O (centres unmarked),-40.9%
4,O=C(CC(c1ccccc1O)N1CCCCC1)N1CCCCC1 (centres unmarked),-4.19%
5,O=C(Nc1nnc(SCC(=O)N2CCCCC2)s1)c1c(F)cccc1F,15.5%
6,CCc1noc(C)c1C(=O)Nc1ccc(F)c(F)c1F,6.4%
7,Cc1cc(C(=O)COc2ccc(C#N)cc2)c(C)n1C1CC1,-21.8%
8,COc1cc(OC)cc(-c2nc(N)n[nH]2)c1,-0.678%
9,C=CCn1c(SCC(=O)Nc2sccc2C#N)nc2sc(C)c(C)c2c1=O,13.1%
10,CCN(CC)S(=O)(=O)c1ccc(C(=O)Nc2ccc(Cc3ccncc3)cc2)cc1,-46%
11,CCOc1ccc(/C=C2\SC(=S)N(C(C(=O)O)c3ccccc3)C2=O)cc1OC (centres unmarked),5.32%
12,CC1CCC(NC(=O)CSc2nnc(-c3cccnc3)o2)CC1 (centres unmarked),0.0964%
13,COc1cccc(NC(=S)Nc2ccc(F)cc2)c1,13.8%
14,O=C(O)CCC(=O)Nc1nc2ccccc2s1,-8.56%
15,Cc1ccc(C#N)c(SCc2ccccc2F)n1,13.2%
16,Cc1ccc2nc(/C(C#N)=C\c3ccc(OC(=O)c4cccs4)cc3)[nH]c2c1,-8.76%
17,O=C(/C=C/c1cccc2ccccc12)N1CCOCC1,-1.15%
18,COc1ccc(CNC(=O)C(C)NS(=O)(=O)c2ccc(C)cc2)cc1 (centres unmarked),-0.46%
19,CCOC(=O)Nc1ccccc1N1C(=O)c2ccccc2C1=O,8.32%
20,Cn1c(=O)c2c(nc(Sc3ncnn3CC(=O)NC3CCCCC3)n2C)n(C)c1=O,2.06%
21,Cc1cc(=O)oc2cc(OCC(=O)N3CCCC3)c(Cl)cc12,-3.11%
22,CCOc1cc(S(=O)(=O)n2ccnc2)ccc1Cl,16.5%
23,Cl.O=C(OC1CCN(CCCl)CC1)C(c1ccccc1)c1ccccc1,11%

row,SMILES,"hERG current change (%, negative = inhibition) at 10uM"
1,CC(=O)N1CCN(S(=O)(=O)c2cccc(C(=O)NCCc3ccc(Cl)cc3)c2)CC1,-12.1%
2,CCOC(=O)N1CCN(c2ncnc3c2[nH]c2ccc(F)cc23)CC1,-2.67%
3,Cc1cccc(NC(=O)CSc2ccc(-c3cccnc3)nn2)c1,-16.3%
4,COc1ccccc1N1CCN(C(=O)c2cccc3c(=O)c(C)c(-c4ccccc4)oc23)CC1,-31.2%
5,C=CCn1c(SCC(=C)C)nc2c1c(=O)[nH]c(=O)n2C,-45.7%
6,CC(=O)NC1=NN(C(C)=O)C2(CCCCC2)S1,0.393%
7,COc1cc(NC(=S)N2CCC(C(N)=O)CC2)c(OC)cc1Cl,20.3%
8,O=C(CN1C(=O)COc2ccc(Cl)cc21)Nc1nccs1,-5.97%
9,NS(=O)(=O)c1ccc(NC(=O)CN2CCc3ccccc3C2)cc1,14.3%
10,ClCC1CSC(=NC23CC4CC(CC(C4)C2)C3)O1 (centres unmarked),11.1%
11,COc1cc(/C=C/C(=O)N2CCN(CC(O)COc3ccccc3)CC2)cc(OC)c1OC.Cl (centres unmarked),-8.44%
12,Cc1cccc(Nc2nnc(SCC(=O)Nc3ccccc3[N+](=O)[O-])s2)c1C,2.2%
13,O=C(CCNC(=O)c1ccccc1Cl)NCCc1ccc(C(F)(F)F)cc1,2.17%
14,OCCCc1nc2n(n1)C(c1cccs1)C=C(c1ccccc1)N2 (centres unmarked),-38.5%
15,O=C(c1ccc(Cl)c(S(=O)(=O)N2CCCCC2)c1)N1CCN(Cc2ccccc2)CC1,-59.1%
16,O=C(Cc1ccccc1[N+](=O)[O-])Nc1ccc2c(c1)OCO2,-40.1%
17,COc1ccnc(N=CNOCc2ccc(C)cc2)c1C#N,1.5%
18,O=C(c1ccccc1)c1ccc(O)cc1O,-3.73%
19,CN(CC(=O)Nc1ccc(Cl)c(C(F)(F)F)c1)C(=O)c1cc(=O)c2ccccc2o1,-19.1%
20,CCOC(=O)CSc1nnc(-c2ccccc2OC)o1,-2.24%
21,CCc1ccc(N2CC(O)=C(c3nc4ccccc4c(=O)[nH]3)C2=N)cc1,2.98%
22,CCc1ccc(OCCn2cccn2)cc1,8.19%
23,O=C(CCN1C(=O)C2C3CCC(C3)C2C1=O)OCC(=O)c1ccc(Br)cc1 (centres unmarked),-30.2%

row,SMILES,"hERG current change (%, negative = inhibition) at 10uM"
1,O=c1c(N2CCOCC2)c(N2CCOCC2)c1=O,10.9%
2,CCCCNC(=O)OC(C)CNC(=O)Oc1cccc(C)c1 (centres unmarked),-1.31%
3,Cc1ccc(CN2C(=O)S/C(=C\c3ccccc3OCC(=O)O)C2=O)cc1,1.61%
4,CC(C)NC(=O)CSc1nc(Cc2cccs2)nc2ccccc12,7.36%
5,O=C(CSc1cccc[n+]1[O-])N1CCc2ccccc21,25.9%
6,COc1ccc(-c2cc(C(=O)N3CCN(c4ccccc4OC)CC3)no2)cc1OC,-0.868%
7,Brc1ccccc1-c1csnn1,7.12%
8,C=C(C)c1cccc(C(C)(C)NC(=O)NNC(=O)c2ccccc2O)c1,8.35%
9,Cc1ccc(C(=O)NC(=S)NNC(=O)c2ccccc2O)cc1,-24.5%
10,Cc1cc(NC(=O)CSc2nnc(-c3ccc(Br)o3)n2Cc2ccccc2)no1,-51.2%
11,Br.N=c1n(CCN2CCOCC2)c2ccccc2n1Cc1ccccc1Br,-72.9%
12,CCOC(=O)c1cnc2c(c(C)nn2CC)c1Cl,-0.189%
13,COc1ccc(C(CNC(=O)CSc2ccc(Br)cc2)N2CCOCC2)cc1 (centres unmarked),-29.6%
14,COc1ccc(-c2cc(C(=O)Nc3ccc(S(=O)(=O)Nc4onc(C)c4C)cc3)c3ccccc3n2)cc1OC,26%
15,COc1cccc(NC(=O)CN2C(=O)NC3(CCc4ccccc43)C2=O)c1 (centres unmarked),16.1%
16,O=C(Cc1cccc(Cl)c1)Nc1ccc(Br)cc1,16.4%
17,COc1ccc(-c2[nH]ncc2CN(C)CCc2c(C)n[nH]c2C)c(F)c1,13%
18,COc1cccc(-c2sc3ccc(OC)cc3c2C#CC2(O)CCCCC2)c1,18.3%
19,COc1ccccc1C(=O)OCn1nnc2ccccc2c1=O,-1.17%
20,Cc1nc(/C=C/c2ccccc2)cc(/C=C/c2ccccc2)n1,1.93%
21,COc1ccc(OC)c(CN2CCCC(CO)C2)c1 (centres unmarked),0.935%
22,Cc1ccc(NC(=O)C2CCN(S(=O)(=O)c3c(C)n[nH]c3C)CC2)c(C)c1,15.7%
23,CC1CCN(S(=O)(=O)c2ccc(NC(=O)CN3CCCC(C)C3)cc2)CC1 (centres unmarked),-11.2%
